In all, about 310,000 compounds went through this assay and about 2,200 (0.71%) showed an effect of 50% or more. Effects have a minus sign here. The list shows a part of the results.
What follows are compounds tested against human ether-à-go-go-related gene (hERG) potassium channel (human, UniProt Q12809) (assay: primary screen, population patch clamp on CHO cells stably expressing hERG).
human ether-à-go-go-related gene (hERG) potassium channel, sequence (Q12809 whole entry, looked up): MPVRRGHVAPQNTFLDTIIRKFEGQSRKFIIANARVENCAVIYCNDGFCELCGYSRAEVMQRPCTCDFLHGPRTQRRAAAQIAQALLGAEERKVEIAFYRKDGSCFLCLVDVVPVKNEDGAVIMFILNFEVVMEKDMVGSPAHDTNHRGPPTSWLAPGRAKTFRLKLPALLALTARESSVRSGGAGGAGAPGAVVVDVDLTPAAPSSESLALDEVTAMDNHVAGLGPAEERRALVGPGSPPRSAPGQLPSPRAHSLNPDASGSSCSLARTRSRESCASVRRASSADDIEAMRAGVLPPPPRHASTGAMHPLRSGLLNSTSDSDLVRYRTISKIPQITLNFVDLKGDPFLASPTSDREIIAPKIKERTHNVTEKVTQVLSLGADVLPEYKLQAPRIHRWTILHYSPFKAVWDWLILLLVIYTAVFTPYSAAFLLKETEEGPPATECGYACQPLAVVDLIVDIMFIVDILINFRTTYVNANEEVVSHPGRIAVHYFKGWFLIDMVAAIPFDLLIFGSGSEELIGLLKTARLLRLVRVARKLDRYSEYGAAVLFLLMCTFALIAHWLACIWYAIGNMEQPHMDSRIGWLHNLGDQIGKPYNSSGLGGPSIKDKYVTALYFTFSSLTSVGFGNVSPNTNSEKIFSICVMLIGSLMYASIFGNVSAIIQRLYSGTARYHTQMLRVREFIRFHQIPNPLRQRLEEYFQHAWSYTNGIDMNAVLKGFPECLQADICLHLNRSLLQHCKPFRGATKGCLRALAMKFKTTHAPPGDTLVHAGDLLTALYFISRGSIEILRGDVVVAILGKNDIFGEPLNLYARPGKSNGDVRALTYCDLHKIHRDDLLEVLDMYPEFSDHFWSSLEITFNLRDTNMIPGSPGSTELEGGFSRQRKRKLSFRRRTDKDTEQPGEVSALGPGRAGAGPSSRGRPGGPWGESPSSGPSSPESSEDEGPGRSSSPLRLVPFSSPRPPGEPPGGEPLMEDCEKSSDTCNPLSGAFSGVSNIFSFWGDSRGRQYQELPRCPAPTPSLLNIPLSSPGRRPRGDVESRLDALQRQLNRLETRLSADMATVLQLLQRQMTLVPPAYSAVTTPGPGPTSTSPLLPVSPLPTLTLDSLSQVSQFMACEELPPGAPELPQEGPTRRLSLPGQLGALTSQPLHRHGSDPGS

Structure (SMILES)	hERG current change (%, negative = inhibition) at 1uM
O=C(CN1C(=O)S/C(=C\c2ccccc2)C1=O)NCCCn1ccnc1	6.75%
N#CCCN(C(=O)COC(=O)c1cc(=O)c2ccccc2o1)c1ccccc1	6.41%
COc1cccc(CNc2ccc(C)c(Cl)c2)c1	21.1%
Cc1c(C(=O)N(Cc2nccn2C)C(C)C)oc2c(F)cccc12	-6.44%
COc1cc2c(cc1OC)CN(CC(=O)Nc1ccc(Cl)cc1Cl)CC2	2.03%
O=C(CNC(=O)c1ccc(Cl)cc1)NC1CCCCC1	11.5%
CCOC(=O)C1=C(C)NC(SCC(N)=O)=C(C#N)C1c1cccs1 (centres unmarked)	-0.462%
Cc1nnc(SCC(=O)NC2CCS(=O)(=O)C2)n1Cc1ccccc1 (centres unmarked)	22.9%
O=C(/C=C/c1ccccc1)Oc1cccc(C(=S)N2CCOCC2)c1	13.2%
O=C(c1ccc(-c2ccccc2Cl)o1)N1CCN(S(=O)(=O)c2cccs2)CC1	17.1%
OCc1cn(-c2ccccc2)nc1-c1ccc2c(c1)OCCO2	8.48%
CCOC(=O)c1c(-c2ccccc2)csc1NC(=O)CCN1CCOCC1.O=C(O)C(=O)O	3.23%
Cc1ccc(N2C(=S)NC3c4ccccc4OC2(C)C3C(=O)N(C)C)cc1 (centres unmarked)	6.64%
COC(=O)c1[nH]c2cc(OC)ccc2c1NC(=O)CN1CCC(C(N)=O)CC1	14.5%
CC(C)(CNC(=O)c1ccccc1F)CNC(=O)c1ccccc1F	8.16%
CCOc1cccc(NC(=O)CSc2nc(C)c3c(c2C#N)CCCC3)c1	6.42%
CC(C)(C)NC(=O)C(c1ccncc1)N(Cc1cccs1)C(=O)Cn1nnc(-c2ccc(F)cc2)n1 (centres unmarked)	-0.676%
O=Cc1nc(-c2ccccc2Cl)n2ccccc12	-1.26%
CCOC(=O)c1cc(CC)sc1NC(=O)Cc1ccsc1	13.4%

Structure (SMILES)	hERG current change (%, negative = inhibition) at 1uM
COc1ccc(N2CC(C(=O)N3CCN(c4ccccc4OC)CC3)CC2=O)cc1 (centres unmarked)	4.23%
Cc1cc(N/N=C/c2cccc([N+](=O)[O-])c2)nc(-n2nc(C)cc2C)n1	15.9%
Cc1ccc(-c2nnc3ccc(SCC(=O)Nc4cc(C)on4)nn23)cc1	-12.8%
O=S(=O)(c1ccccc1Br)N1CCN(c2ncccn2)CC1	9.03%
Cc1nn(C)c(C(=O)Nc2c(C)nn(Cc3c(F)c(F)c(F)c(F)c3F)c2C)c1Br	8.56%
Cc1ccc(OCC(=O)N/N=C\c2ccc(O)cc2)c([N+](=O)[O-])c1	25.6%
O=C(Oc1ccc(-c2nnco2)cc1)N1CCOCC1	6.36%
COc1cc(/C=N/NC(=O)CCN2CCN(C)CC2)cc2c1OCO2	10.6%
O=c1ccc(S(=O)(=O)N2CCCC2)cn1Cc1nc(-c2ccccc2)no1	6.33%
O=C(N/N=C/c1ccccc1[N+](=O)[O-])c1ccncc1	16.3%
Cc1nn(-c2ccccc2)c(N2CCCC2)c1/C=N/NC(=S)Nc1cc(C(F)(F)F)ccc1Cl	12%
CCn1ncc(C2=NOC(C(=O)Nc3cccc(O)c3)C2)c1C (centres unmarked)	8.82%
Nc1nnn(CC(=O)N/N=C/c2ccc(O)cc2)n1	15.6%
Cc1ccc(S(=O)(=O)CCc2nnc(NC(=O)c3ccco3)s2)cc1	9.32%
Cc1ccc2nc(-c3cccc(S(=O)(=O)N(C)C)c3)cn2c1	11.8%
CCC(C(=O)O)n1c(C(F)(F)F)nc2ccccc21 (centres unmarked)	-3.57%
CCn1c2ccccc2c2cc(NC(=O)c3cccc([N+](=O)[O-])c3C)ccc21	10.5%
CCC(=O)Nc1ccc(Cl)c(NC(=O)c2c(OC)cccc2OC)c1	10.5%
COC(=O)c1cccc(N2C(=O)C3C4C=CC(CC4)C3C2=O)c1 (centres unmarked)	16.9%

Structure (SMILES)	hERG current change (%, negative = inhibition) at 1uM
CN(c1ccccc1)S(=O)(=O)c1cc(C(=O)NCCCn2ccnc2)ccc1Cl	0.127%
C[C@@H](CSc1ccccc1)CN1CC[C@H](O)CCC1=O	13.7%
NS(=O)(=O)c1ccc(CCNC(=O)c2cc(-c3ccc(Br)cc3)nc3ccccc23)cc1	15.6%
Br.Cc1ccc(C(=O)CSc2nc3ccccc3o2)cc1	12.3%
COC(=O)CCSCC(=O)Nc1ccc(C)c(S(=O)(=O)N2CCCCC2)c1	10.7%
Cc1ccc(Cn2c(SCC(N)=O)nc3c2c(=O)n(C)c(=O)n3C)cc1	4.71%
O=C(NCCC1=CCCCC1)c1ccc(Br)o1	4.5%
O=C(Nc1ccc(NC(=O)c2cccs2)c(Cl)c1)c1cccs1	13.4%
Cl.NC(Cc1ccccc1)c1nc2ccccc2[nH]1 (centres unmarked)	24.7%
CCc1c(C)sc(NC(=O)c2cc(-c3ccc(O)cc3)on2)c1C#N	11.2%
N#Cc1ccccc1OCCOCCNC1CCCC1	4.69%
Cc1ccc(O)c(C(CC(=O)NC(C)C)c2ccccc2)c1 (centres unmarked)	11.8%
COc1cccc(C(C(=O)NC2CCCC2)N(C(=O)c2ccco2)c2ccc(-n3cnnn3)c(C)c2)c1OC (centres unmarked)	12.9%
COc1ccc(-n2nc3cc(N)c(Br)cc3n2)cc1	11.9%
CCc1c(C)sc(NC(NC(C)=O)(C(=O)OC)C(F)(F)F)c1C#N (centres unmarked)	8.23%
CCn1c(C)c(P(c2ccccc2)c2ccccc2)[n+]2ccccc12.F[B-](F)(F)F	15.5%
O=C(COc1ccc(Br)cc1Br)NC(=O)NC1CCCC1	9.81%
COC(=O)c1ccc(C2NCCc3cc(OC)c(OC)cc32)cc1 (centres unmarked)	15.4%

Source: paper PMC4336329 (PLoS ONE, 2015)
